# Reference: PubChem BioAssay (Tox21)
# Values joined by “and” are separate entries in the source; they are usually repeats but may differ in a detail not shown here. Equal values may be shown once. This list was built around the results that the source calls inconclusive (neither active nor inactive); the mix of calls is not that of the screen. For part of these data: Potencies beside an inconclusive call are fits to weak or partial responses and may not hold up. A structure can be active in one record and inactive in another. Active and inactive are the calls of the source. Unless noted, the call rests on the fitted dose curve; in most records, active means well fitted curve in the direction sought with a large enough effect in the repeat runs; inconclusive means weak or mixed curves; inactive means no such curve, though single readings can be large; an effect the other way counts as inactive or inconclusive.
# Experiments:
# [1] = A CellTox Green Cytotoxicity Assay to monitor cytotoxicity in HEK293 cells - 16 hour (AID 1224888); further: nearly all actives have a fitted effect of over 35% in size
# Summary of the method: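 Read-out: fluorescence of a cell-impermeant cyanine dye staining DNA of dead cells, proportional to cytotoxicity. HEK293, 600 cells/well with reagent, compound (23 nL DMSO) added after 5 h; reads at 0, 8, 16, 24, 32, 40 h.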
# [2] = A CellTox Green Cytotoxicity Assay to monitor cytotoxicity in HepG2 cells - 8 hour (AID 1224890); further: nearly all actives have a fitted effect of over 45% in size
# Summary of the method: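 HepG2, 600 cells/well premixed w/ CellTox Green; 5 h settle, 37 C/5% CO2; pintool cpd add (DMSO); 37 C, 40 h; fluorescence read at 0, 8, 16, 24, 32, 40 h.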
# [3] = qHTS assay to identify small molecule antagonists of the androgen receptor (AR) signaling pathway using the MDA cell line in the presence of 0.5 nM R1881 - cell viability counter screen (AID 1259242); further: nearly all actives have a fitted effect of over 45% in size
# Summary of the method: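 Live-cell protease fluorescence, CellTiter-Fluor, 30 min at 37C. Cells: MDA-kb2, 3,000/well, preincubated 5 hr. Compounds plus 0.5 nM R1881 final, 16 hr, 37C, 0% CO2.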
# [4] = qHTS assay to identify small molecule HDAC inhibitors - cell viability counter screen (AID 1259365); further: nearly all actives have a fitted effect of over 50% in size
# Summary of the method: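 Luminescence from CellTiter-Glo, developed 30min at room temperature, reports viability of wild-type HCT-116 cells treated 2hr with compounds at 37 C and 5% CO2 after overnight plating.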
# [5] = qHTS assay to identify small molecule agonists of the sonic hedgehog signaling (Shh) pathway - cell viability counter screen (AID 1259366); further: nearly all actives have a fitted effect of over 50% in size
# Summary of the method: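 Cytotoxicity counter screen run in the same wells as the Shh reporter assay. NIH/3T3 cells carrying a Gli1 response element–driven luciferase were treated with DMSO-dissolved compounds for 24hr, and live-cell protease activity was measured with CellTiter-Fluor.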
# [6] = qHTS assay to identify small molecule antagonists of the sonic hedgehog signaling (Shh) pathway - cell viability counter screen (AID 1259367); further: nearly all actives have a fitted effect of over 55% in size
# Summary of the method: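 Viability was read by CellTiter-Fluor fluorescence in the same wells, reagent added 23 hr into compound treatment and incubated 1 hr at 37C. The 3T3 Gli1-Luc reporter cells (2,000/well) received conditioned medium after compound and ran 24 hr.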
# [7] = qHTS assay to identify small molecule antagonists of the sonic hedgehog signaling (Shh) pathway (AID 1259369; calls by dose curve; further: nearly all actives have a fitted effect of over 45% in size)
# Summary of the method: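 Luminescence readout: firefly Luc under Gli1 response element in 3T3Gli1-Luc cells (NIH/3T3 clone). Antagonist mode, stimulation by conditioned medium; compound exposure 24hr at 37 C, 5% CO2.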
# [8] = target: Estrogen receptor beta (Homo sapiens) (UniProt Q92731); experiment: qHTS assay to identify small molecule antagonists of the estrogen receptor beta (ER-beta) signaling pathway (AID 1259378; active means well fitted inhibition curve with a large enough effect in the signal ratio in the repeat runs, not every such curve was filed as active; inconclusive means weak or mixed curves, or effect the other way; inactive means no such curve, though single readings can be large or run the other way; the % refers to the signal ratio; on activity, negative = inhibition: on the % scale 0 is the no-effect control and ±100 the full control effect); settings: ER-beta-UAS-bla HEK293T, beta-lactamase FRET ratio, 16 h; activity, negative = inhibition: at 92.4 µM (top of the series) unless noted
# Summary of the method: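 Antagonist mode: compounds added to beta-lactamase reporter HEK293T ER-beta-UAS cells stimulated with E2 (1nM final), 16 hr at 37C. LiveBLAzer B/G FRET substrate, 2 hours room temperature, fluorescence read-out.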
# [9] = qHTS RealTime-Glo MT Cell Viability Assay in HepG2 cells - 0 hour (AID 1224889); further: nearly all actives have a fitted effect of over 50% in size
# Summary of the method: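 Compound treatment began 5 h after plating HepG2 cells (600/well) with NanoLuc luciferase and prosubstrate. Plates stayed at 37 C for 40 h; luminescence was captured at six time points, 0 h through 40 h.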
# [10] = qHTS assay to identify small molecule antagonists of the estrogen receptor alpha (ER-alpha) signaling pathway using the BG1 cell line in the presence of 0.1 nM 17-beta-estradiol - cell viability counter screen (AID 1259241); further: nearly all actives have a fitted effect of over 40% in size
# Summary of the method: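 VM7Luc4E2, 4,000 cells/well, phenol red-free medium + 10% charcoal-stripped FBS; 24 hr plating; cpd + 0.1 nM E2 final, 22 hr 37C/5% CO2; CellTiter-Fluor 30 min, fluorescence.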
# [11] = target: Estrogen receptor (Homo sapiens) (UniProt P03372); experiment: qHTS assay to identify small molecule antagonists of the estrogen receptor alpha (ER-alpha) signaling pathway using the BG1 cell line in the presence of 0.1 nM 17-beta-estradiol (AID 1259244); further: nearly all actives have a fitted effect of over 50% in size
# Summary of the method: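 Luminescence after ONE-Glo (30 min, room temperature) measured ERE-luciferase activity in VM7Luc4E2 cells treated 22 h with compound and 0.1 nM final 17beta-estradiol as stimulator.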
# [12] = qHTS assay to identify small molecule agonists of the androgen receptor (AR) signaling pathway in the presence of an antagonist - cell viability counter screen (AID 1259379); further: nearly all actives have a fitted effect of over 25% in size
# Summary of the method: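 Viability counter screen: CellTiter-Fluor fluorescence, measured in the same wells as the luciferase read-out. MDA-kb2 cells, 3,000/well, with nilutamide at 3.0uM final and compounds at 15 concentrations, 16 hr at 37C, 0% CO2.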
# [13] = target: Estrogen receptor beta (Homo sapiens) (UniProt Q92731); experiment: qHTS assay to identify small molecule agonists of the estrogen receptor beta (ER-beta) signaling pathway (AID 1259377; active means well fitted activation curve with a large enough effect in the signal ratio in the repeat runs, not every such curve was filed as active; inconclusive means weak or mixed curves, or effect the other way; the % refers to the signal ratio; on activation: on the % scale 0 is the no-effect control and ±100 the full control effect); settings: ER-beta-UAS-bla HEK293T, beta-lactamase FRET ratio, 16 h; activation: at 92.4 µM (top of the series) unless noted
# Summary of the method: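 HEK293T ER-beta-UAS-bla; 2% charcoal-stripped FBS; cells pre-incubated 6 hr, compound 16 hr, 37C/5% CO2; LiveBLAzer B/G FRET substrate 2 h RT; fluorescence intensity read.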
# [14] = qHTS assay to identify small molecule HDAC inhibitors (AID 1259364);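 further: wild-type HCT-116 cells with endogenous class I/II HDAC activity; nearly all actives have a fitted effect of over 45% in size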
# Summary of the method: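 HCT-116 (wild type), 1,500 cells/well, overnight; compound 2 hr 37C 5% CO2; HDAC-Glo I/II reagent 30 min RT; luminescence readout.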
# Potency means the concentration at half of the fitted maximal effect; tags describe the fitted curve by direction and shape or compound fluorescence and quenching.
# Chain of UniProt Q92731 (Q92731 whole entry, looked up): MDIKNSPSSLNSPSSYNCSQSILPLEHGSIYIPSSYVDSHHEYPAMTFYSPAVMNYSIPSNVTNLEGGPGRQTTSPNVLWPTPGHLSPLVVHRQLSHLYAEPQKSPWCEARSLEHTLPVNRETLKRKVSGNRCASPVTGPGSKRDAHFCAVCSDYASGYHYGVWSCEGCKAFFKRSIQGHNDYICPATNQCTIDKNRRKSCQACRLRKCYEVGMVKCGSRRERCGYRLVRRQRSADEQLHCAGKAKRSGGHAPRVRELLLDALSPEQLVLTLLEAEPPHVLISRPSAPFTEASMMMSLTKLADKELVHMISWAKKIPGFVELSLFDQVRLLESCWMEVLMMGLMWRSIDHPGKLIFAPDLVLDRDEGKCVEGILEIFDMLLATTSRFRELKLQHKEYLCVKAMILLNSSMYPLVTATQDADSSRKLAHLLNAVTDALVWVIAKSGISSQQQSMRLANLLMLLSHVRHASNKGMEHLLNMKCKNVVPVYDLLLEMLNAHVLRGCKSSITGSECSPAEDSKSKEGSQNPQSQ
# Chain of UniProt P03372 (P03372 whole entry, looked up): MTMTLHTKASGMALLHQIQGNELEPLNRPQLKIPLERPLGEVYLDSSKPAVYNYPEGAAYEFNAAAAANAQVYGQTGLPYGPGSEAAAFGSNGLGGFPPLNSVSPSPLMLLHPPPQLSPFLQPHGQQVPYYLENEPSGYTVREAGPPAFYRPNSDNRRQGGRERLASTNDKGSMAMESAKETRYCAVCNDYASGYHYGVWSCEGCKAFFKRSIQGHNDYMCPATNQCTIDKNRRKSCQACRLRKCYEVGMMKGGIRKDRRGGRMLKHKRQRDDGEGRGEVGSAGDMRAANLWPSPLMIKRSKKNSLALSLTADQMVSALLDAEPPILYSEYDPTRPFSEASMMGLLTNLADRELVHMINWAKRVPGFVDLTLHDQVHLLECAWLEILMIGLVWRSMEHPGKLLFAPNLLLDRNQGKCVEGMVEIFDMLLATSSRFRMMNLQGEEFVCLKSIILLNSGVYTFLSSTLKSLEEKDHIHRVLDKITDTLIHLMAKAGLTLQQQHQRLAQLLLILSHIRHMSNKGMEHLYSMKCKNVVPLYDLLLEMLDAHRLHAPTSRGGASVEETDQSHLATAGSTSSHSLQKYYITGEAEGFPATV
structure (smiles),measurement,setting,value
O=[N+]([O-])/C=C/c1ccccc1,Potency,[1],"inconclusive: 17.7 µM [activator, full curve, poor fit]"
same,Potency,[2],"inconclusive: 55.8 µM [activator, single point] and inconclusive: 54.9 µM [activator, partial curve, poor fit]"
same,Potency,[3],"inconclusive: 55.4 µM [cytotoxic, partial curve] and inconclusive: 68.6 µM [cytotoxic, single point]"
same,Potency,[4],"inconclusive: 11 µM [rising, full curve] and inconclusive: 3.86 µM [rising, full curve]"
same,Potency,[5],active: 5.54 µM and active: 10.9 µM
same,Potency,[6],"inconclusive: 68.6 µM [cytotoxic, single point]"
same,Potency,[7],"inconclusive: 3.49 µM [inhibitor, full curve] and inconclusive: 17.2 µM [inhibitor, single point]"
NCCCNCCCN,Potency,[1],"inconclusive: 62.6 µM [activator, single point]"
same,Potency,[7],"inconclusive: 17.5 µM [inhibitor, full curve]"
same,Potency,[8],inactive
O=C(Nc1ccc(Br)cc1)c1cc(Br)cc(Br)c1O,Potency,[9],"active: 21.8 µM and inconclusive: 38.9 µM [cytotoxic, partial curve] and inconclusive: 23.9 µM [cytotoxic, partial curve, poor fit]"
same,Potency,[2],active: 43.6 µM
same,Potency,[10],"inconclusive: 29.8 µM [cytotoxic, partial curve, poor fit]"
same,Potency,[3],"inconclusive: 24.2 µM [cytotoxic, full curve] and inconclusive: 13.7 µM [cytotoxic, full curve] and active: 13.3 µM"
same,Potency,[11],active: 6.83 µM and active: 10.9 µM and inconclusive: 13.3 µM [inhibitor]
same,Potency,[6],"inconclusive: 15.3 µM [cytotoxic, full curve] and inconclusive: 54.5 µM [cytotoxic, single point] and inconclusive: 33.5 µM [cytotoxic]"
same,Potency,[7],"inconclusive: 13.6 µM [inhibitor, full curve, poor fit] and active: 13.7 µM and active: 13.3 µM"
same,Potency,[12],active: 21.6 µM and active: 19.3 µM and active: 29.8 µM
CC1CCC(C(C)C)C(OC(=O)c2ccccc2N)C1 (stereo not drawn),Potency,[1],"inconclusive: 48.3 µM [activator, partial curve, poor fit]"
same,Potency,[3],"inconclusive: 67.6 µM [cytotoxic, partial curve, poor fit]"
same,Potency,[11],inconclusive: 67.6 µM [inhibitor]
same,Potency,[4],"inconclusive: 42.7 µM [cytotoxic, partial curve, poor fit]"
same,Potency,[5],"inconclusive: 67.6 µM [cytotoxic, single point]"
same,Potency,[13],"inconclusive: 67.6 µM [falling, single point]"
same,Potency,[8],active: 8.51 µM
Brc1cccc(-c2ccccc2)c1,Potency,[1],"inconclusive: 55.3 µM [activator, single point]"
same,Potency,[14],inactive
same,Potency,[6],inactive
Clc1ccc(C(c2ccccc2Cl)C(Cl)(Cl)Cl)cc1 (stereo not drawn),Potency,[1],"inconclusive: 43.9 µM [activator, partial curve, poor fit]"
same,Potency,[5],"inconclusive: 77.4 µM [cytotoxic, partial curve, poor fit] and inconclusive: 40.2 µM [cytotoxic, single point]"
same,activation,[13],inconclusive: -4.76%
same,Potency,[8],active: 6.15 µM and active: 8.02 µM
same,Potency,[12],"inconclusive: 77.4 µM [cytotoxic, partial curve, poor fit]"
Brc1ccc(Oc2ccccc2)cc1,Potency,[1],"inconclusive: 56.3 µM [activator, single point]"
same,Potency,[3],inactive
same,Potency,[11],"inconclusive: 78.8 µM [inhibitor, single point]"
same,Potency,[6],"inconclusive: 70.3 µM [cytotoxic, single point]"
c1ccc(NNc2ccccc2)cc1,Potency,[1],"inconclusive: 24.8 µM [activator, partial curve, poor fit]"
same,Potency,[9],active: 43.6 µM
same,Potency,[14],"inconclusive: 30.9 µM [inhibitor, partial curve] and active: 15.4 µM"
same,Potency,[8],inactive
CCC(C)c1cccc(C(C)CC)c1O (stereo not drawn),Potency,[1],"inconclusive: 49 µM [activator, partial curve, poor fit]"
same,Potency,[10],"inconclusive: 27.3 µM [cytotoxic, single point]"
same,Potency,[5],"inconclusive: 68.6 µM [cytotoxic, single point]"
same,"activity, negative = inhibition",[8],inconclusive: 23.3%
CCCC[n+]1cccc(C)c1,Potency,[1],inactive
same,Potency,[10],inactive
same,Potency,[7],"inconclusive: 0.244 µM [inhibitor, single point]"
